The supplement of paper PMC12217912
This is one part of the list. The full chains were built here from the parent and the listed change. Inactive controls read about 0.05.

B1: TEV protease; numbered along this chain (parent)
chain: MGESLFKGPRDYNPISSSICHLTNESDGHTTSLYGIGFGPFIITNKHLFRRNNGTLVVQSLHGVFKVKDTTTLQQHLVDGRDMIIIRMPKDFPPFPQKLKFREPQREERICLVTTNFQTKSMSSMVSDTSCTFPSGDGIFWKHWIQTKDGQCGSPLVSTRDGFIVGIHSASNFTNTNNYFTSVPKNFMELLTNQEAQQWVSGWRLNADSVLWGGHKVFMVKPEEPFQPVKEATQL

Variants of: B1
Test: raw area under fraction-flipped curve 0-4 h after induction (AUC4h, not background-subtracted), DNA-recorder readout of cleavage of the substrate (dimensionless); higher = more cleavage of the substrate by the protease variant
Details: temperature: 34 °C; time window: 0-4 h after rhamnose induction
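Also: Bxb1 expression induced with 0.2% (w/v) L-rhamnose at OD600 near 0.5, cultures sampled hourly, flipped fraction per protease–substrate barcode pair counted by paired-end Illumina sequencing.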

| Variant | area with substrate ENLYFQC | area with substrate ENLYFQD | area with substrate ENLYFQF | area with substrate ENLYFQG | area with substrate ENLYFQK | area with substrate ENLYFQN | area with substrate ENLYFQS | area with substrate ENLYFQT | area with substrate ENLYFQW | area with substrate ENLYFQY | area with substrate ENLYFQI | area with substrate ENLYFQM | area with substrate ENLYFQE | area with substrate ENLYFQL | area with substrate ENLYFQR | area with substrate ENLYFQH | area with substrate ENLYFQP | area with substrate ENLYFQQ | area with substrate ENLYFQV |
| --- | --- | --- | --- | --- | --- | --- | --- | --- | --- | --- | --- | --- | --- | --- | --- | --- | --- | --- | --- |
| K221W | 0.0917 | 0.0427 | 0.0708 | 0.0645 | 0.0626 | 0.0755 | 0.0843 | 0.057 | 0.0644 | 0.0571 | – | – | – | – | – | – | – | – | – |
| Y34R | 0.0925 | – | – | 0.1 | – | – | 0.0912 | – | – | – | 0.0637 | 0.0548 | – | – | – | – | – | – | – |
| T55N | 0.0934 | 0.0459 | – | 0.0661 | – | 0.071 | 0.0899 | 0.0681 | 0.0621 | – | 0.056 | 0.0864 | 0.0849 | 0.0697 | 0.0623 | – | – | – | – |
| E25F | 0.117 | – | – | 0.095 | 0.064 | 0.0755 | 0.0972 | 0.0889 | 0.0649 | 0.083 | 0.0512 | 0.0904 | – | – | 0.0616 | 0.0675 | 0.0653 | 0.0924 | – |
| F117Q | 0.126 | 0.0844 | 0.0811 | – | 0.0572 | 0.0772 | 0.109 | 0.071 | 0.0511 | 0.0559 | – | 0.148 | 0.0521 | – | 0.0582 | – | 0.0518 | – | – |
| H215P | 0.0775 | 0.0691 | – | 0.0521 | – | 0.0488 | 0.0612 | 0.0783 | 0.0464 | 0.0503 | 0.0531 | 0.0376 | 0.0665 | 0.0519 | 0.0524 | – | 0.0663 | – | – |
| F92D | 0.0619 | 0.053 | 0.0433 | 0.0633 | – | – | 0.0665 | 0.053 | 0.057 | – | 0.0568 | 0.052 | – | – | 0.0562 | 0.0655 | 0.0549 | – | – |
| W141E | 0.0735 | – | – | – | 0.0647 | – | 0.058 | 0.0627 | 0.0598 | 0.0486 | – | 0.0434 | – | – | 0.0562 | 0.0474 | 0.0603 | – | – |
| V67I | 0.109 | 0.046 | – | 0.0906 | 0.0514 | 0.0472 | 0.103 | – | 0.0601 | – | – | – | 0.0509 | – | – | 0.0863 | – | – | 0.0584 |
| Q75V | 0.147 | – | – | 0.0869 | – | 0.0701 | 0.0934 | 0.0594 | – | 0.0591 | – | 0.084 | – | – | – | – | 0.0484 | – | 0.0582 |
| N52E | 0.0824 | – | 0.061 | – | 0.06 | 0.0431 | 0.0794 | – | – | 0.0624 | – | 0.0628 | – | 0.0693 | 0.0565 | – | – | – | 0.0641 |
| P94F | 0.112 | – | – | – | 0.0727 | – | 0.0969 | 0 | 0.0782 | – | – | – | – | – | – | – | – | 0.0538 | – |
| L190A | 0.11 | – | – | 0.0943 | 0.0691 | – | 0.0896 | – | 0.0636 | 0.0739 | – | 0.0907 | – | 0.0502 | 0.0705 | 0.0657 | 0.0704 | 0.0499 | – |
| N206Y | 0.0851 | – | – | – | 0.052 | 0.0786 | 0.0777 | 0.0522 | 0.0631 | – | – | 0.0609 | – | 0.0641 | 0.0526 | 0.0732 | – | 0.0723 | 0.0522 |
| R87Y | 0.121 | – | – | – | 0.0592 | 0.0784 | 0.0958 | 0.072 | – | – | – | 0.0722 | 0.0651 | 0.0822 | 0.0521 | – | 0.0568 | – | – |
| Q59L | 0.108 | – | 0.089 | – | – | – | 0.11 | – | 0.0741 | – | 0.0478 | 0.11 | – | 0.0497 | – | – | – | – | – |
